From patent US12460006B2, “Antibodies against integrin alpha 11 beta 1” (Momenta Pharmaceuticals, Inc., priority 2019, dated 2025)
Entries after “also recorded” stand apart in the source; their conditions may differ.

Columns and labels:
[1] = molecular target: human α11β1 (Homo sapiens, UniProt Q9UKX5); assay: ELISA binding to recombinant human α11β1; conditions: binding Yes/No
Protocol: (§1) 0.25 μg/mL of target antigen (recombinant human or mouse α11β1) was plated in a 96-well plate over night at 4° C. Plates were washed (PBS with 0.1% Tween-20), blocked (PBS with 2% BSA and 0.05% Tween-20) for 1 hour at room temperature and incubated with a range of antibody concentrations for 1 hour at room temperature. Subsequently, plates were washed and incubated with biotinylated anti-rabbit/mouse/human IgG in a 1:1000 dilution buffer and incubated for 1 hour at room temperature. After washing the plates, Streptavidin HRP was added at 1:200 in dilution buffer and incubated for 1 hour at room temperature. Ultra TMB ELISA substrate solution was added and the plates incubated for 5 minutes on a plate shaker. The reaction was stopped by adding stop solution to each well and plates were read at 450 nm.

[2] = molecular target: mouse α11β1 (Mus musculus, UniProt P61622); assay: ELISA binding to recombinant mouse α11β1; conditions: binding Yes/No
Protocol: as §1

[3] = tested on: α1β1, α2β1 and/or α10β1; assay: Counter-screen for cross-reactivity to other collagen receptors; type: binding, human
Protocol: Wistar rats were immunized with recombinant human α11β1 protein. An enzyme-linked immunosorbent assay (ELISA) was used to test an immune response against target human and mouse proteins. Subsequently, cell fusion (by electro fusion) was performed with animals that produced a good immune response. All fused cells were plated in a 96-well plate and supernatants were screened by ELISA against soluble human and mouse α11β1. Positive clones were counter-screened against human α1β1, α2β1 and α10β1. […] Purified antibodies were then generated from the selected clones and heavy chain and light chain variable domain sequences were obtained from each purified antibody.
10 mice from 5 different strains were immunized with an appropriate mixture of human α11β1, mouse α11β1 and tolerance breaking protein. Plasma titers were evaluated by ELISA against a mixture of human and mouse α11β1. Popliteal, inguinal, and iliac lymph nodes were collected. ELISA-positive anti-human/mouse α11β1 hybridomas were expanded and subjected to a secondary screen against human and mouse α11β1, control HIS protein, and a counter-screen was performed against human […], α2β1 and α10β1. Supernatant IgG concentration was sufficient for functional screening. Selected hybridomas satisfying all the criteria were cloned and clonal hybridomas were confirmed by ELISA against human and mouse α11β1 and subsequently scaled-up and IgGs were purified. Heavy and light chain variable regions of selected hybridomas were then sequenced.
α11β1 belongs to a family of collagen receptors and has a relatively high homology to them. Therefore, the novel antibodies of this invention were counter-screened against α1β1, α2β1 and/or α10β1. Table 2 includes results of cross-reactivity to the other receptors.

[4] = tested on: CHO-K1 cells expressing human α11; assay: Cell adhesion inhibition (xCelligence), type I collagen; type: cell-based; conditions: for Inhibition of CHO-K1 adhesion to collagen: Yes/No
Protocol: 0.6×10^6 cells/mL were incubated with each antibody at a range of concentrations for 20 minutes at 37° C. E-Plate VIEW 96 PET plate coated with 100 ng/mL type I collagen or PBS overnight at room temperature was blocked in 3% BSA for 1 house at room temperature. After washing the plate with PBS, cell and antibody mixture was added to the wells and the plate was places into an xCelligence machine. Cell adhesion was recorded over 6 hours. The time point of maximum cell adhesion was used for comparison relative to control.
A CHO-K1 hu α11 cell line was used to assess the ability of mAbs to block α11β1-mediated binding to type I collagen. […] In the “Untreated” condition, cells were plated on type I collagen but no antibody was added and in the “Uncoated” condition, cells were seeded onto BSA-coated wells containing no type I collagen. Statistics were performed using one-way ANOVA followed by Dunnett's multiple comparisons test. […] Therefore, it is possible that these mAbs bind on an α11β1 domain that keeps the integrin in a low or intermediate affinity state. […] Nine human mAbs were also tested for their ability to inhibit the binding of human CHO-α11 cells to type I collagen.

[5] = tested on: Human Pulmonary Fibroblasts; assay: Fibroblast-to-Myofibroblasts Transition (FMT), αSMA expression; type: cell-based; conditions: for Inhibition of FMT: Yes/No
Protocol: Human Pulmonary Fibroblasts (ScienCell) were cultured in complete Fibroblast Growth Medium (ScienCell) until 80% confluent. Cells were washed and harvested using Accutase. Cells were seeded onto tissue culture-treated 96 well plates at 20,000 cells/well in complete Fibroblast Growth Medium. After 24 hours, cells were washed and starved in serum reduced medium for an additional 24 hours. After starvation, cells were treated with TGFβ-1 (R&D Systems) with or without anti-α11 antibodies. A polyclonal rabbit anti-human α11 antibody was used as a positive control. Appropriate IgG isotype controls were also included. After 48 hours, cells were harvested, fixed, permeabilized and stained with AlexaFluor488 Labeled Anti-αSMA (α-smooth muscle actin) (Invitrogen). Cells were acquired on a FACS Verse (Benton Dickson) to determine expression levels of αSMA. Data were analyzed by gating on single cells and determining the geometric Mean Fluorescence Intensity (gMFI) in the FITC channel for each sample. gMFI for each sample was normalized to the untreated control and presented as % inhibition.
In addition to the binding abilities described above, it is important for an anti-α11β1 antibody to inhibit the fibroblast-to-myofibroblast transition (FMT). It is now appreciated that myofibroblasts are a heterogeneous cell population, existing in different activation states, with the main function of producing and contracting collagen extracellular matrix (ECM). FMT is a multi-step event that is controlled by a changing mechanical environment in tissues undergoing repair. TGFβ is one of the potent factors that potentiates this process and alpha smooth muscle actin (αSMA) is one of the main markers that becomes overexpressed when fibroblasts are undergoing the transition to becoming myofibroblasts. The presence of αSMA enhances fibroblast contraction and guides myofibroblast activation through an intracellular feedback loop. Because αSMA is the main molecular marker of myofibroblasts, the ability of the novel anti-α11β1 mAbs to inhibit αSMA expression in TGFβ-induced FMT was tested.

Sequence of mouse α11β1 (P61622 23-1141 limits assumed): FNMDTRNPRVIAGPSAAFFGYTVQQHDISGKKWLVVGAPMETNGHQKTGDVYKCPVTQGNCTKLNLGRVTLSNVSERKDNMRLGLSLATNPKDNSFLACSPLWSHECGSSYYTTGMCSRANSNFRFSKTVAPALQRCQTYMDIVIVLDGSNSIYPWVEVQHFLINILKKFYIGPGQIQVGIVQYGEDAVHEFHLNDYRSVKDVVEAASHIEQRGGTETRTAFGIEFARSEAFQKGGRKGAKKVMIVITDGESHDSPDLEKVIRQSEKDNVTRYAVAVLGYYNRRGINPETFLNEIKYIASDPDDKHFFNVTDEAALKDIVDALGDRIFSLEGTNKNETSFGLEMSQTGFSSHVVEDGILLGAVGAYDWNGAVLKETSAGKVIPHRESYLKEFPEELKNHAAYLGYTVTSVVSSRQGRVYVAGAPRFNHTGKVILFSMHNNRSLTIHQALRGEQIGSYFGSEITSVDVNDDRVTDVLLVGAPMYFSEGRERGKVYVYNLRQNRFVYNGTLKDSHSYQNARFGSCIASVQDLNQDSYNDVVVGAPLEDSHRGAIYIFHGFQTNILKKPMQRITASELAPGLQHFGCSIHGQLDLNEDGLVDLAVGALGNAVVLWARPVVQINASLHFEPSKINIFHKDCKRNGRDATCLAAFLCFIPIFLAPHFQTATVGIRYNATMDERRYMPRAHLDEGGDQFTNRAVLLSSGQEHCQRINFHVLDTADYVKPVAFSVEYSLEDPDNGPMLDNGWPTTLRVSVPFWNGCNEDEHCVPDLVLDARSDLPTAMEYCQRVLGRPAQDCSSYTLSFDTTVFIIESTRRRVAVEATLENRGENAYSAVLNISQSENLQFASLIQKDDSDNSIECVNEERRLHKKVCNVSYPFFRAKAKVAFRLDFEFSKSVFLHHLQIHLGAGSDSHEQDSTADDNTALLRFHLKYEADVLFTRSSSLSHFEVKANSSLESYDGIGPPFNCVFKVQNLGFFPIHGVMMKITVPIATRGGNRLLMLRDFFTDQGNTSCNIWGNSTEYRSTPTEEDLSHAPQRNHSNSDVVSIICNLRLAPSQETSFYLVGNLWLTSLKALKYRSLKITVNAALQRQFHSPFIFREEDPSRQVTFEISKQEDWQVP
Sequence of mouse α11β1 (P09055 21-728 partner limits assumed): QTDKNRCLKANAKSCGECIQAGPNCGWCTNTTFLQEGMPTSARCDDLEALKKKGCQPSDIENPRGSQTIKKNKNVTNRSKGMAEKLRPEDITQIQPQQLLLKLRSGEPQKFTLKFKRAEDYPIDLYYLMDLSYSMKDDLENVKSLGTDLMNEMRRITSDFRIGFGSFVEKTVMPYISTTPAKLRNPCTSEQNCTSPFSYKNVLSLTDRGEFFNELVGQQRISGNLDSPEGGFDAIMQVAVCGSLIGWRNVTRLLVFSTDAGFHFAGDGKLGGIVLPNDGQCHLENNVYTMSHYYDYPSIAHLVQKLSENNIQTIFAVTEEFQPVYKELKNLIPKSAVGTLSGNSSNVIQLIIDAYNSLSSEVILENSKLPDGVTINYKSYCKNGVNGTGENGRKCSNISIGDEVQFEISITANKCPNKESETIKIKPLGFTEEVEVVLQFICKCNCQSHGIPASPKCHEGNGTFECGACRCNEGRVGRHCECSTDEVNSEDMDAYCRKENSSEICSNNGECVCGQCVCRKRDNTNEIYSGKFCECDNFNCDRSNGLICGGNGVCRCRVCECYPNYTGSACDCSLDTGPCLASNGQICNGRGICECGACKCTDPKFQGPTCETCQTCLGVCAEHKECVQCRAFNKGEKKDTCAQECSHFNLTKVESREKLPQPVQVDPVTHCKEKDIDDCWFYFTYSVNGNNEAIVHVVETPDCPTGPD
Sequence of human α11β1 (Q9UKX5 23-1141 limits assumed): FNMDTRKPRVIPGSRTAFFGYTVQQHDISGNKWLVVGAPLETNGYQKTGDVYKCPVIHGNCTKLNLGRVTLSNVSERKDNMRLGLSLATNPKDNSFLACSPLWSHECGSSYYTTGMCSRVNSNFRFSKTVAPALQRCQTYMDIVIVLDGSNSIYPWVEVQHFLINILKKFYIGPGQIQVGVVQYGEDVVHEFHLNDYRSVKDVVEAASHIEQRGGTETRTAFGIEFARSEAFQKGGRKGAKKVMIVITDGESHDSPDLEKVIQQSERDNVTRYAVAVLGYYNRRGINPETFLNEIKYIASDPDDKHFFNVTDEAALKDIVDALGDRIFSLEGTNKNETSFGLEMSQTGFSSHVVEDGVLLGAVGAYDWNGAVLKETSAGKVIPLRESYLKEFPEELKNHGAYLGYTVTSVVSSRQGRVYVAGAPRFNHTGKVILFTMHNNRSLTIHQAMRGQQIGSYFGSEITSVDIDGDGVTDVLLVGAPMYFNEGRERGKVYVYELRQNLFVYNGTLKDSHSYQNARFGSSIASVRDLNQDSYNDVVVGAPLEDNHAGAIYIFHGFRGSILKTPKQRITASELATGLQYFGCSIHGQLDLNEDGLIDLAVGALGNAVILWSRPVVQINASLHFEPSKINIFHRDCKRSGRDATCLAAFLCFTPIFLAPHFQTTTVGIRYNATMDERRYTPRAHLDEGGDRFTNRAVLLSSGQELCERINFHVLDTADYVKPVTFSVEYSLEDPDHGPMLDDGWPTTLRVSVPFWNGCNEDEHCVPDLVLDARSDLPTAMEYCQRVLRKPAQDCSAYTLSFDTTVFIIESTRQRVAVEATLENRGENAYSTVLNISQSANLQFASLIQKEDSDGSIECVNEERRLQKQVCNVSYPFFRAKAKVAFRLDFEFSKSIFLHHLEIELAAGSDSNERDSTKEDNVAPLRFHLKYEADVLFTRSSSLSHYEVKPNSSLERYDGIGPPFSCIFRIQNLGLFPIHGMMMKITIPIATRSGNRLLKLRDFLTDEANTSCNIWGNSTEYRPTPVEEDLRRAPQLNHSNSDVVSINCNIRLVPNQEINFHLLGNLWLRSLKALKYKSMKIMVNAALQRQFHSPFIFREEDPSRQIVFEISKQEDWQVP
Sequence of human α11β1 (P05556 21-728 partner limits assumed): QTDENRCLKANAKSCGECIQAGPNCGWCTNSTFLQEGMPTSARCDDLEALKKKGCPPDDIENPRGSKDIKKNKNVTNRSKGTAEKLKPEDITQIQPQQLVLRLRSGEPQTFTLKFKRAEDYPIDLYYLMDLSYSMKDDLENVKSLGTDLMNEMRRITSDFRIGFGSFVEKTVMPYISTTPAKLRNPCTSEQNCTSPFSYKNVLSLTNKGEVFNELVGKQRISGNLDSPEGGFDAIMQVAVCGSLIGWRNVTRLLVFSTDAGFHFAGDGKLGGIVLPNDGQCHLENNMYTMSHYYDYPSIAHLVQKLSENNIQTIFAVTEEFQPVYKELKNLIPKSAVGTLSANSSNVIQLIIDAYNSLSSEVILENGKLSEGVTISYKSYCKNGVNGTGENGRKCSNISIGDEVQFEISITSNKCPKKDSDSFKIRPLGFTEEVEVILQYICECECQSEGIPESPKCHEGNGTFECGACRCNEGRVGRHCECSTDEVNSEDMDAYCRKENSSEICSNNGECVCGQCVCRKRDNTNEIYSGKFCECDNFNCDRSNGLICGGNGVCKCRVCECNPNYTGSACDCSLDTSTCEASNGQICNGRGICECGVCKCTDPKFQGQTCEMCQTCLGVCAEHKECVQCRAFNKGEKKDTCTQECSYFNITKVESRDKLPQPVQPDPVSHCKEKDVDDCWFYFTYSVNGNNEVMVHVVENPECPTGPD

| Molecule | Human α11β1 ELISA [1] | Murine α11β1 ELISA [2] | Off Target [3] | inhibition of cell adhesion to type I collagen ([4]; CHO-K1 hu α11 cells) | Inhibition of CHO-K1 adhesion to collagen [4] | inhibition of αSMA expression / FMT ([5]; TGFβ-induced FMT) | Inhibition of FMT [5] |
| --- | --- | --- | --- | --- | --- | --- | --- |
| 8-G15: mouse anti-α11β1 mAb; VH SEQ ID NO: 107, VL SEQ ID NO: 108 (antibody, V domains shown) VH: EVQLQQSGPELVKPGASVRISCKASGYTFTDYYIHWVKQKPGQGLECIGEIYPGTDNTYYSKKFRGKATLTADKSSDTAYMQLSSLTSEDSAVYFCARGDYYRGYFDVWGAGTTVTVSS VL: DVVMTQTSLTLSVTIGQPASISCKSSQSLLHSNGKTYLNWLLQRPGQSPKFLIYLVSKLESGVPDRFSGSGSGTDFTLKISRVEAEDLGVYYCLQSTHFPWTFGGGTKLEIK | Yes | No | No | strong blocker of cell adhesion; also recorded: decrease cell adhesion | Yes | FMT inhibitors | Yes |
| 2-A3: mouse anti-α11β1 mAb; VH SEQ ID NO: 131, VL SEQ ID NO: 132 (antibody, V domains shown) VH: EVQLQQSGPELVKPGASVKMSCKASGYTFTDYYMMWVKQSHGKSLEWIGDINPYNGGSSYNPKFKGRATLTVDKSSSTAYMQLNSLTSEDSAVYYCARGTYWGQGTLVTVSA VL: DVVMTQTPLTLSVTIGQPASISCKSSQSLLDSAGKTYLNWLLQRPGQSPKRLMYLVSKLDSGVPDRFTGSGSGTDFTLKISRVEAEDLGVYYCWQGTHFPYTFGGGTKLEIK | Yes | Yes/Low | No |  | No |  | No |
| 7-O8: mouse anti-α11β1 mAb; VH SEQ ID NO: 143, VL SEQ ID NO: 144 (antibody, V domains shown) VH: EVQLQQSGPELVKPGASVKMSCKASGYTFTDYYIHWVKQKPGQGLEYIGEIYPGSGNTYYNGKFRGKATLTADKSSSTAYMQLSSLTSEDSAVYFCGSGYFDYWGQGTTLTVSS VL: DVVMTQTPLTLSVTIGQPASISCKSSQSLLYSNGKTYLNWLLQSPGQSPKLLIYLVSKLESGVPDRFSGSGSGTDFTLKLSRVEAEDLGVYYCVQGTHFPFTFGSGTKLEIK | Yes | Yes/Low | Yes |  | No |  | No |
| 10-K10: mouse anti-α11β1 mAb; VH SEQ ID NO: 139, VL SEQ ID NO: 140 (antibody, V domains shown) VH: EVQLQQSGPELVKPGASVKMSCKASGYTITDYYMMWLKQSHGKSLEWIGDINPYTGGTSYNQKFKGKATLTVDKSSSTAYMQLNSLTSEDSAVYYCARGAYWGQGTTLTVSS VL: DVVMTQTPLTLSVTIGQPASISCKSSQSLLDSDGKTYLNWLLQRPGQSPKRLIYLVSKLDSGVPDRFTGSGSGTDFTLKISRVEAEDLGVYYCWQGTHFPYTFGGGTKLEIK | Yes | Yes/Low | No |  | No |  | No |
| 6-A15: mouse anti-α11β1 mAb; VH SEQ ID NO: 137, VL SEQ ID NO: 138 (antibody, V domains shown) VH: EVQLQQSGPELVKPGASVKMSCKASGYTITDYYMMWLKQSHGKSLEWIGDINPYTGGTSYNQKFKGKATLTVDKSSSTAYLQLHSLTSEDSAVYYCARGAYWGQGTTLTVSS VL: DVVMTQTPLTLSVTIGQPASISCKSSQSLLDSDGKTYLNWLLQRPGQSPKRLIYLVSKLDSGVPDRFTGSGSGTDFTLKISRVEAEDLGVYYCWQGTHFPYTFGGGTKLEIK | Yes | Yes/Low | No |  | No |  | No |
| 6-P20: mouse anti-α11β1 mAb; VH SEQ ID NO: 141, VL SEQ ID NO: 142 (antibody, V domains shown) VH: EVQLQQSGPELVKPGASVKISCKASGYTFTDYYMNWVKQSHGRSLELIGDINPNNGGSNFNQKFRGKATLTVDKSSSTAYMELRSLTSEDSAIYYCARMGYWGQGTLVTVSA VL: DVVMTQTPLTLSVTIGQPASISCKSSQSLLHSDGKTYLNWMFQRPGQSPKRLIYLVSKLDSGVPYRFTGGGSGTDFTLQISRVETEDLGVYYCWQGTHFPRTFGGGTKLEIK | Yes | No | No |  | No |  | No |
| 6-O17: mouse anti-α11β1 mAb; VH SEQ ID NO: 133, VL SEQ ID NO: 134 (antibody, V domains shown) VH: QVQLQQPGAELVKPGASVKLSCKASGYTFTSYWMHWIKQRPGQGLEWIGEINPSNGGSNYNEKFKSKATLTVDKSSSTAYMQLSSLTSEDSAVYHCKSRGYWGQGTTLTVSS VL: DVVMTQTPLTLSVTIGQPASISCKSSQSLLDSYGKTYLNWLLQRPGQSPKRLIYLVSKLDSGVPDRFTGSGSGTDFTLKISRVEAEDLGIYYCWQGTHFPHTFGSGTKLEIK | Yes | Yes/Low | No |  | No |  | No |
